The subject of this experiment is PC3 (human prostate carcinoma cell line) cells. Briefly: cells. Particulars: read-out: EC50 PC3.

Structures are written as SMILES.

Take `CCc1ncnc(-c2ccc(C(=O)N3CCN(C4CCS(=O)(=O)C4)CC3)c(Cl)c2)c1C#Cc1ccc(N)nc1` [Example D-32]: the EC50 came to 38 nM.

Turning to `CCc1ncnc(-c2ccc(C(=O)NCCOC)c(Cl)c2)c1C#Cc1ccc(N)nc1` [Example D-33], the EC50 worked out at 45 nM. The figure for `CCc1ncnc(-c2ccc(C(=O)N(C)CCO)c(Cl)c2)c1C#Cc1ccc(N)nc1` [Example D-34] is 36 nM; for `CCc1ncnc(-c2ccc(C(=O)N(C)CCOC)c(Cl)c2)c1C#Cc1ccc(N)nc1` [Example D-35] it is 35 nM; for `CCc1ncnc(-c2ccc(C(=O)N3CCN(CCO)CC3)c(Cl)c2)c1C#Cc1ccc(N)nc1` [Example D-36] it is 41 nM. As for `CCc1ncnc(-c2ccc(C(=O)N3CCN(c4ccccn4)CC3)c(Cl)c2)c1C#Cc1ccc(N)nc1` [Example D-37], the EC50 was determined as 38 nM. The figure for `CCc1ncnc(-c2ccc(C(=O)N3CCN(c4ccccc4)CC3)c(Cl)c2)c1C#Cc1ccc(N)nc1` [Example D-39] is 67 nM. The figure for `CCc1ncnc(-c2ccc(C(=O)N3CCN(CC(F)F)CC3)c(Cl)c2)c1C#Cc1ccc(N)nc1` [Example D-41] is 28 nM. With `CCc1ncnc(-c2ccc(C(=O)N3CCN(C(C)C)CC3)c(Cl)c2)c1C#Cc1ccc(N)nc1` [Example D-42], the EC50 turned out to be 16 nM. The figure for `CCc1ncnc(-c2ccc(C(=O)N3CCN(C(C)(C)C)CC3)c(Cl)c2)c1C#Cc1ccc(N)nc1` [Example D-43] is 28 nM; for `CCc1ncnc(-c2ccc(C(=O)N3CCNC(=O)C3)c(Cl)c2)c1C#Cc1ccc(N)nc1` [Example D-44] it is 56 nM; for `CCc1ncnc(-c2ccc(C(=O)N3CCN(CC)CC3)c(Cl)c2)c1C#Cc1ccc(N)nc1` [Example D-45] it is 54 nM. The figure for `CCc1ncnc(-c2ccc(C(=O)N3CCN(C(C)=O)CC3)c(Cl)c2)c1C#Cc1ccc(N)nc1` [Example D-46] is 74 nM; for `CCc1ncnc(-c2ccc(C(=O)N3CCN(CC(F)F)CC3)c(OC)c2)c1C#Cc1ccc(N)nc1` [Example D-47] it is 58 nM. As for `CCc1ncnc(-c2ccc(C(=O)N3CCN(C(C)(C)C)CC3)c(OC)c2)c1C#Cc1ccc(N)nc1` [Example D-48], the EC50 was 58 nM. Turning to `CCc1ncnc(-c2ccc(C(=O)N3CCN(C(C)C)CC3)c(OC)c2)c1C#Cc1ccc(N)nc1` [Example D-50], the half-maximal effective concentration (EC50) turned out to be 80 nM. The figure for `CCc1ncnc(-c2ccc(C(=O)N3CCN(CCOC)CC3)c(OC)c2)c1C#Cc1ccc(N)nc1` [Example D-52] is 71 nM; for `CCc1ncnc(-c2ccc(C(=O)N3CCN(CC)CC3)c(OC)c2)c1C#Cc1ccc(N)nc1` [Example D-53] it is 67 nM; for `CCc1ncnc(-c2ccc(C(=O)N3CCN(CC(F)(F)F)CC3)c(OC)c2)c1C#Cc1ccc(N)nc1` [Example D-54] it is 38 nM.

Regarding `CCc1ncnc(-c2ccc(C(=O)N3CCN(S(=O)(=O)CC)CC3)c(OC)c2)c1C#Cc1ccc(N)nc1` [Example D-55], the EC50 came to 36 nM.

As for `CCc1ncnc(-c2ccc(C(=O)N3CCN(C(C)=O)CC3)c(OC)c2)c1C#Cc1ccc(N)nc1` [Example D-56], the 50% effective concentration (EC50) was determined as 115 nM. The figure for `CCc1ncnc(-c2ccc(C(=O)N3CCN(CCO)CC3)c(OC)c2)c1C#Cc1ccc(N)nc1` [Example D-57] is 357 nM; for `CCc1ncnc(-c2ccc(C(=O)N3CCNC(=O)C3)c(OC)c2)c1C#Cc1ccc(N)nc1` [Example D-59] it is 248 nM; for `CCc1ncnc(-c2ccc(C(=O)N3CCN(CCN(C)C)CC3)c(OC)c2)c1C#Cc1ccc(N)nc1` [Example D-60] it is 480 nM. For `CCc1ncnc(-c2ccc(C(=O)N3CCN(CC(F)F)CC3)c(F)c2)c1C#Cc1ccc(N)nc1` [Example D-61] the value was 22 nM; for `CCc1ncnc(-c2ccc(C(=O)N3CCC(N4CCN(C)CC4)CC3)c(F)c2)c1C#Cc1ccc(N)nc1` [Example D-62], 56 nM; for `CCc1ncnc(-c2ccc(C(=O)N3CCC(N4CCOCC4)CC3)c(F)c2)c1C#Cc1ccc(N)nc1` [Example D-63], 30 nM.

Consider `CCc1ncnc(-c2ccc(C(=O)N3CCN(C4CCN(C)CC4)CC3)c(F)c2)c1C#Cc1ccc(N)nc1` [Example D-64], for which the EC50 came out at 71 nM.

With `CCc1ncnc(-c2ccc(C(=O)NC3CCN(C)CC3)c(F)c2)c1C#Cc1ccc(N)nc1` [Example D-65], the EC50 was 156 nM. In the case of `CCc1ncnc(-c2ccc(C(=O)N3CCC(N4CCN(C5CCN(C)CC5)CC4)CC3)c(F)c2)c1C#Cc1ccc(N)nc1` [Example D-67], the EC50 is 105 nM. The figure for `CCc1ncnc(-c2ccc(C(=O)N(C)O)c(F)c2)c1C#Cc1ccc(N)nc1` [Example D-68] is 24 nM; for `CCc1ncnc(-c2ccc(C(=O)N3CCN(CC(F)(F)F)CC3)c(F)c2)c1C#Cc1ccc(N)nc1` [Example D-69] it is 51 nM; for `CCc1ncnc(-c2ccc(C(=O)N3CCC(N4CCCCC4)CC3)c(F)c2)c1C#Cc1ccc(N)nc1` [Example D-70] it is 80 nM.

As for `CCc1ncnc(-c2ccc(C(=O)N3CCC(O)CC3)c(F)c2)c1C#Cc1ccc(N)nc1` [Example D-71], the EC50 is 32 nM.

With `CCc1ncnc(-c2ccc(C(=O)N(C)CC3CCCN(C)C3)c(F)c2)c1C#Cc1ccc(N)nc1` [Example D-73], the EC50 worked out at 179 nM. The figure for `CCc1ncnc(-c2ccc(C(=O)NCC3CCCN(C)C3)c(F)c2)c1C#Cc1ccc(N)nc1` [Example D-74] is 128 nM; for `CCc1ncnc(-c2ccc(C(=O)NCC3CCN(C)C3)c(F)c2)c1C#Cc1ccc(N)nc1` [Example D-75] it is 147 nM. The figure for `CCc1ncnc(-c2ccc(C(=O)N(C)CC3CCN(C)CC3)c(F)c2)c1C#Cc1ccc(N)nc1` [Example D-76] is 93 nM; for `CCc1ncnc(-c2ccc(C(=O)NCC3CCN(C)CC3)c(F)c2)c1C#Cc1ccc(N)nc1` [Example D-77] it is 80 nM.

For `CCc1ncnc(-c2ccc(C(=O)N3CCC(C(C)(C)O)CC3)c(F)c2)c1C#Cc1ccc(N)nc1` [Example D-79], the EC50 amounted to 33 nM. For `CCc1ncnc(-c2ccc(C(=O)N(C)CC(C)(C)O)c(F)c2)c1C#Cc1ccc(N)nc1` [Example D-81] the value was 72 nM. The figure for `CCc1ncnc(-c2ccc(C(=O)N3CCN(C(C)=O)CC3)c(F)c2)c1C#Cc1ccc(N)nc1C` [Example D-82] is 50 nM. For `CCCCN1CCN(C(=O)c2ccc(-c3ncnc(CC)c3C#Cc3ccc(N)nc3)cc2F)CC1` [Example D-83] the value was 36 nM; for `CCc1ncnc(-c2ccc(C(=O)N3CCN(C4CCOCC4)CC3)c(F)c2)c1C#Cc1ccc(N)nc1` [Example D-84], 17 nM; for `CCc1ncnc(-c2ccc(C(=O)N3CCN(CC(=O)N(C)C)CC3)c(F)c2)c1C#Cc1ccc(N)nc1` [Example D-85], 56 nM. For the compound `CCc1ncnc(-c2ccc(C(=O)N3CCN(C4CCS(=O)(=O)C4)CC3)c(F)c2)c1C#Cc1ccc(N)nc1` [Example D-86], the EC50 was 39 nM.

In the case of `CCc1ncnc(-c2ccc(C(=O)N3CCN4CCCCC4C3)c(F)c2)c1C#Cc1ccc(N)nc1` [Example D-87], the EC50 was found to be 54 nM. For `CCc1ncnc(-c2ccc(C(=O)N3CCN(CC4CCCO4)CC3)c(F)c2)c1C#Cc1ccc(N)nc1` [Example D-88] the value was 68 nM. `CCc1ncnc(-c2ccc(C(=O)N3CCN(S(=O)(=O)CC)CC3)c(F)c2)c1C#Cc1ccc(N)nc1` [Example D-89]: the EC50 was found to be 42 nM. The figure for `CCc1ncnc(-c2ccc(C(=O)N3CCN(C(C)=O)CC3)c(F)c2)c1C#Cc1ccc(N)nc1` [Example D-90] is 48 nM; for `CCc1ncnc(-c2ccc(C(=O)N3CCN(CCO)CC3)c(F)c2)c1C#Cc1ccc(N)nc1` [Example D-91] it is 44 nM; for `CCc1ncnc(-c2ccc(C(=O)N3CCN(c4ccccn4)CC3)c(F)c2)c1C#Cc1ccc(N)nc1` [Example D-92] it is 76 nM. For `CCc1ncnc(-c2ccc(C(=O)N3CCN(c4ccncc4)CC3)c(F)c2)c1C#Cc1ccc(N)nc1` [Example D-93] the value was 76 nM; for `CCc1ncnc(-c2ccc(C(=O)N3CCN(CC4CCCCC4)CC3)c(F)c2)c1C#Cc1ccc(N)nc1` [Example D-94], 602 nM. For `CCc1ncnc(-c2ccc(C(=O)N3CCN(CCOC)CC3)c(F)c2)c1C#Cc1ccc(N)nc1` [Example D-95] the value was 40 nM; for `CCc1ncnc(-c2ccc(C(=O)N3CCN(C4CCCC4)CC3)c(F)c2)c1C#Cc1ccc(N)nc1` [Example D-96], 63 nM; for `CCc1ncnc(-c2ccc(C(=O)N3CCN(Cc4ccccc4)CC3)c(F)c2)c1C#Cc1ccc(N)nc1` [Example D-97], 151 nM.

As to `CCc1ncnc(-c2ccc(C(=O)N3CCN(c4ccccc4)CC3)c(F)c2)c1C#Cc1ccc(N)nc1` [Example D-98], the EC50 was found to be 78 nM. With `CCc1ncnc(-c2ccc(C(=O)N3CCN(CCN(C)C)CC3)c(F)c2)c1C#Cc1ccc(N)nc1` [Example D-99], the EC50 came to 78 nM. The figure for `CCc1ncnc(-c2ccc(C(=O)N3CCC(N(C)C)CC3)c(F)c2)c1C#Cc1ccc(N)nc1` [Example D-100] is 44 nM.

Consider `CCc1ncnc(-c2ccc(C(=O)N3CCC(O)(CN(C)C)CC3)c(F)c2)c1C#Cc1ccc(N)nc1` [Example D-103], for which the EC50 amounted to 58 nM. For `CCc1ncnc(-c2ccc(C(=O)N3CCC(CCO)CC3)c(F)c2)c1C#Cc1ccc(N)nc1` [Example D-104] the value was 62 nM; for `CCc1ncnc(-c2ccc(C(=O)N3CC[S+]([O-])CC3)c(F)c2)c1C#Cc1ccc(N)nc1` [Example D-105], 50 nM. The figure for `CCc1ncnc(-c2ccc(C(=O)N3CCN(CC4CC4)CC3)c(F)c2)c1C#Cc1ccc(N)nc1` [Example D-106] is 42 nM; for `CCc1ncnc(-c2ccc(C(=O)N3CCC(N4CCC(C)CC4)C3)c(F)c2)c1C#Cc1ccc(N)nc1` [Example D-108] it is 41 nM. For `CCc1ncnc(-c2ccc(C(=O)N3CCCC(O)C3)c(F)c2)c1C#Cc1ccc(N)nc1` [Example D-110] the value was 30 nM; for `CCc1ncnc(-c2ccc(C(=O)N3CCC(N4CCCC4)CC3)c(F)c2)c1C#Cc1ccc(N)nc1` [Example D-112], 61 nM.

The EC50 is the concentration needed to bring the measured effect to its halfway point.
